Source: article PMC12002885
These are yes or no findings as the source states them, for the method shown. Binding seen in cells or lysates may run through a third protein. Some results given as binding are weak or reduced against the parent protein; the word gives no strength. For part of these data: Sequences can lack the tags named with a protein.

Sequences of proteins named here, by UniProt entry; tags and fusion partners are left off.
UniProt Q9CUN6: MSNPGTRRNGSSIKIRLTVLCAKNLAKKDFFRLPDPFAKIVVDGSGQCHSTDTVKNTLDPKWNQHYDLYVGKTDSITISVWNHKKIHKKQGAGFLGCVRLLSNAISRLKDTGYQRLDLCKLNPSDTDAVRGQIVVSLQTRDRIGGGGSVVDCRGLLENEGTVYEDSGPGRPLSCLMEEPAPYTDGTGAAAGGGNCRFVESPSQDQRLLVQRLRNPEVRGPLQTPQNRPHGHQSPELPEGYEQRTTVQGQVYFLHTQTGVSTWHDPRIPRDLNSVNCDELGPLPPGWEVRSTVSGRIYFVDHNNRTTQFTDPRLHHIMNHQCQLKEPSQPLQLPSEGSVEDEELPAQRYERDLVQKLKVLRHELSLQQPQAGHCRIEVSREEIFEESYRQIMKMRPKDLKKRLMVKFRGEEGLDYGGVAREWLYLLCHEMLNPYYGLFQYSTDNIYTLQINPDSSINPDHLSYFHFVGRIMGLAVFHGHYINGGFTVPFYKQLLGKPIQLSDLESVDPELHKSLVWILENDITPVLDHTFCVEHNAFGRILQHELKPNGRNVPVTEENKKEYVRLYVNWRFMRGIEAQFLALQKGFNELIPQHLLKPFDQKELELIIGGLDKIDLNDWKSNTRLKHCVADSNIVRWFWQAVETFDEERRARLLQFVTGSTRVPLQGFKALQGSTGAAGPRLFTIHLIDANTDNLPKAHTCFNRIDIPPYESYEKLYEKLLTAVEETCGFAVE
UniProt P37238: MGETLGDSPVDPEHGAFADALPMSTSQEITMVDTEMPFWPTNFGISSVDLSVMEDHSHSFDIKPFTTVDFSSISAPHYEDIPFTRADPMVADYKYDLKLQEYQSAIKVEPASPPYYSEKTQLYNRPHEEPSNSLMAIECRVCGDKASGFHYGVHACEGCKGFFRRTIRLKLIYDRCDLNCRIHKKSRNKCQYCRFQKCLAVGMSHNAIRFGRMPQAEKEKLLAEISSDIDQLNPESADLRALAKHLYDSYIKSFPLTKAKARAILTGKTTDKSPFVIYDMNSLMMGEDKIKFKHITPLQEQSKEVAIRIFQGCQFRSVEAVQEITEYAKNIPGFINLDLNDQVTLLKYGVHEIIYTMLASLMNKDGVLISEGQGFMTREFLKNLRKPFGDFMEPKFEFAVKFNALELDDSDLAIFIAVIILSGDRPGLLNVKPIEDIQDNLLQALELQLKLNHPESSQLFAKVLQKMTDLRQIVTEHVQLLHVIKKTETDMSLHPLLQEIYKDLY

Legend:
[1] = molecular target: T1, HA-tagged SDCCAG3 deletion mutant lacking the intermediate segment 146-261 (mouse) (UniProt A2AIW0); experiment: co-IP; HEK293T cells co-transfected with the plasmids (HA-Sdccag3 or its deletion mutants with Flag-Pparγ or Smurf1); HA, FLAG or SMURF1 antibody on protein A/G magnetic beads, 4°C 2 h, washed with PBST (0.5% Tween-20, pH 7.4); Western blot
T1 sequence: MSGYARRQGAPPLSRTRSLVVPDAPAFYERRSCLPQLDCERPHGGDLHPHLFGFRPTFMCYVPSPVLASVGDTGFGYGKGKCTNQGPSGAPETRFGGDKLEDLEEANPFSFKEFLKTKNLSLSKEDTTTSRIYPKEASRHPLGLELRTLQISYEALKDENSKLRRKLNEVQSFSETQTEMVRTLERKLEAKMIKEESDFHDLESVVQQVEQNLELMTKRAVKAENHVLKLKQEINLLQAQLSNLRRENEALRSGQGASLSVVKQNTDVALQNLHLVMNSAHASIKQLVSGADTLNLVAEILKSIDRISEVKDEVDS

[2] = molecular target: T2, HA-tagged SDCCAG3, full-length (mouse) (UniProt A2AIW0); experiment: as above
T2 sequence: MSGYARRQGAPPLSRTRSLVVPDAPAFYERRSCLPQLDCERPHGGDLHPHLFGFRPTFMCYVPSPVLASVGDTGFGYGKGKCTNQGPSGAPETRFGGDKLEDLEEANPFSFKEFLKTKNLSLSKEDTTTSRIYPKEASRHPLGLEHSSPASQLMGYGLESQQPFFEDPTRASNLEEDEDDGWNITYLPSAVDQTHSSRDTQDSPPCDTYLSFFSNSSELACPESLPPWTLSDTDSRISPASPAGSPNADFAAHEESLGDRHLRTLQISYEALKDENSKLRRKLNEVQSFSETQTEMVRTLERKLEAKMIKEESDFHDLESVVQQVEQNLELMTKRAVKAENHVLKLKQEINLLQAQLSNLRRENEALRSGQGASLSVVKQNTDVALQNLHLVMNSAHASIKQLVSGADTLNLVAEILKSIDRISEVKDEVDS

[3] = molecular target: T3, serum-defined colon cancer antigen 3 (SDCCAG3), endogenous in 3T3-L1 adipocytes (mouse (endogenous in 3T3-L1)) (UniProt A2AIW0); experiment: co-IP; endogenous proteins in lysate of 3T3-L1 adipocytes (IP lysis buffer); antibody on protein A/G magnetic beads, 4°C 2 h, washed with PBST (0.5% Tween-20, pH 7.4); Western blot
T3 sequence: T2 sequence

[4] = molecular target: SMAD specific E3 ubiquitin protein ligase 1 (SMURF1), in 3T3-L1 cells (mouse (endogenous in 3T3-L1)) (UniProt Q9CUN6); experiment: as above
[5] = molecular target: SMURF1, exogenously expressed in HEK293T cells (UniProt Q9CUN6); experiment: co-IP; HEK293T cells co-transfected with the plasmids (HA-Sdccag3 or its deletion mutants with Flag-Pparγ or Smurf1); HA, FLAG or SMURF1 antibody on protein A/G magnetic beads, 4°C 2 h, washed with PBST (0.5% Tween-20, pH 7.4); Western blot

For “FLAG-tagged PPARγ (from UniProt P37238 1-505)”, the binding [1] was “no binding” and the binding [2] was “binds”.

“peroxisome proliferator-activated receptor gamma (PPARγ), endogenous in 3T3-L1 adipocytes (from UniProt P37238 1-505)” was tested, and the binding [3] was “binds”.

B1: serum-defined colon cancer antigen 3 (SDCCAG3), endogenous in 3T3-L1 adipocytes (protein, UniProt A2AIW0 1-432)
chain: T2 sequence
With B1 the binding [4] was “binds”.

B2: HA-tagged SDCCAG3, full-length (protein, UniProt A2AIW0 1-432)
chain: T2 sequence
In the case of B2, the binding [5] is reported as “binds”.

B3: HA-tagged SDCCAG3 deletion mutant lacking the intermediate segment 146-261 (protein, UniProt A2AIW0)
chain: T1 sequence
For B3, the binding [5] was “no binding”.
